According to publication PMC4336329 (PLoS ONE, 2015):
The campaign covered roughly 310,000 compounds. About 14,000 (4.5%) showed an effect of 50% or more. The effect is printed as a negative number. The list shows a part of the results. Where a SMILES comes first, the peptide text is derived from it. [ ]: non-standard residue; d: D form. ξ: configuration not given here. ξF = NC(Cc1ccccc1)C(=O)O

Each compound was assayed against human ether-à-go-go-related gene (hERG) potassium channel (human, UniProt Q12809) (assay: primary screen, population patch clamp on CHO cells stably expressing hERG).
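Note: peak tail current of the secondary pulse compared with the same well before compound.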

Chain of human ether-à-go-go-related gene (hERG) potassium channel (Q12809 whole entry, looked up): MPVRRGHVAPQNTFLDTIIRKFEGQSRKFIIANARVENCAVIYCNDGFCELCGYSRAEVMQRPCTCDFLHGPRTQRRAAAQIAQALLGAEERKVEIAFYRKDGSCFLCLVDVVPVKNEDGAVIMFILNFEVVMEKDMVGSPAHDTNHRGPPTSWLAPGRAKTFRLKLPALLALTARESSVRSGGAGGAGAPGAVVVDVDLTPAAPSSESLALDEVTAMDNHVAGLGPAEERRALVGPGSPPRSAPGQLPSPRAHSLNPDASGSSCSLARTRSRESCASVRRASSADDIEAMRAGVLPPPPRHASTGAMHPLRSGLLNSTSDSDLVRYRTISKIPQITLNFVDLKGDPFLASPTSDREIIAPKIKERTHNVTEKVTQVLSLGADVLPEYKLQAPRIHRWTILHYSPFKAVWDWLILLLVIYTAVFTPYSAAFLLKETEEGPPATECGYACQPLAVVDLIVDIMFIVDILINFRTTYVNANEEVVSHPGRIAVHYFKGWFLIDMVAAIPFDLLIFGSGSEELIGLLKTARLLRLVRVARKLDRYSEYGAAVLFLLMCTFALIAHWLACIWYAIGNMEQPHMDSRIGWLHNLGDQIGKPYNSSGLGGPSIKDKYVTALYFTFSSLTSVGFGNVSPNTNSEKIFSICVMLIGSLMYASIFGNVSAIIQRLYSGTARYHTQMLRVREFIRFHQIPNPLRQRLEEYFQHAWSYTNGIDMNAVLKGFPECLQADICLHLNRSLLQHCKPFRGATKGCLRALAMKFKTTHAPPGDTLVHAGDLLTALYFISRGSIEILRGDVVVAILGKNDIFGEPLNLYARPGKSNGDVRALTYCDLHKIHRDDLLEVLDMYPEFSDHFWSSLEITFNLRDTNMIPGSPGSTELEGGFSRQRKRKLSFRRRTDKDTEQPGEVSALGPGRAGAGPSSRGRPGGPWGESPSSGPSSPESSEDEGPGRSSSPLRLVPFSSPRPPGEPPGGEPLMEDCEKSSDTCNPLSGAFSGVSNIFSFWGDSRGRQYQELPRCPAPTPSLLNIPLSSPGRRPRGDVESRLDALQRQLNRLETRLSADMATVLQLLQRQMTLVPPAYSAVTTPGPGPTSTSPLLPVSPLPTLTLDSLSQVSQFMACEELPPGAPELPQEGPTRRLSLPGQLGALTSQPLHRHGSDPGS

Going from `CCc1ccccc1NC(=O)CN(C)C(=O)COc1ccc(C)nc1[N+](=O)[O-]` to `CCOc1ncccc1C(=O)OCC(=O)Nc1cc(C)ccc1C`, the “hERG current change (%, negative = inhibition) at 10uM” value rises from -6.74% to 3.95%.

Going from `COc1ccccc1C/C(N)=N/OC(=O)c1cccs1` to `COc1cccc(NC(=O)C(C)Oc2ccccc2)c1` (centres unmarked), the “hERG current change (%, negative = inhibition) at 10uM” value falls from 12.1% to 7.32%.

First: COc1ccccc1NC(=O)C1=C(C)Nc2nnnn2C1c1ccccc1OC (centres unmarked)
Second: COc1ccc2c(c1)CCc1c(C(=O)Nc3ccc(OC)c(OC)c3)noc1-2
The “hERG current change (%, negative = inhibition) at 10uM” value of the first is higher: 9.82% for the first, -1.11% for the second.

Compared with `CC(C)(CNC(=O)c1cccs1)CNC(=O)c1cccs1`, `Cc1ccc(NC(=O)C(=O)NNC(=O)c2cccs2)cc1` is higher in “hERG current change (%, negative = inhibition) at 10uM” value: -3.99% for the first, 13.3% for the second.

Compared with `Cn1cccc1/C=N/N1CCN(c2ccccn2)CC1`, `Br.CN1CCN(C(=O)Cc2ccccc2)CC1` is higher in “hERG current change (%, negative = inhibition) at 10uM” value: -1.71% for the first, 19.5% for the second.

First: Cl.c1ccc(CNc2nc(N3CCN(Cc4ccccc4)CC3)nc3ccccc23)cc1
Second: COc1cccc(OC)c1OCCN1CCN(C(c2ccccc2)c2ccccc2)CC1
The “hERG current change (%, negative = inhibition) at 10uM” value of the first is higher: -65.9% for the first, -72.7% for the second.

First: O=C(NC1CCCCC1)c1n[nH]c2c1CCCCC2
Second: COc1ccccc1OCc1ccc(C(=O)NC2CCCCC2)o1
The “hERG current change (%, negative = inhibition) at 10uM” value of the first is higher: 2.43% for the first, -12.5% for the second.

Going from `Cc1cnc(C(=O)OCC(=O)N2c3ccccc3NC(=O)C2(C)C)cn1` to `O=C(O)CCC(=O)N1c2ccccc2NC2=C(C(=O)CC(c3ccc(F)cc3)C2)C1c1ccc([N+](=O)[O-])o1` (centres unmarked), the “hERG current change (%, negative = inhibition) at 10uM” value rises from 10.4% to 27.4%.

Compared with `Cc1cc([N+](=O)[O-])cc2ncccc12`, `CC(C)C(=O)NC(c1cccs1)c1cc([N+](=O)[O-])c2cccnc2c1O` (centres unmarked) is higher in “hERG current change (%, negative = inhibition) at 10uM” value: -2.74% for the first, 31.7% for the second.

Going from `CCOc1cc(-n2ncc(C#N)c2N)nc(SC)n1` to `CCOC(=O)c1nnn(CC(=O)Nc2cc(F)ccc2F)c1C(=O)OCC`, the “hERG current change (%, negative = inhibition) at 10uM” value falls from 1.05% to 0.314%.

Compared with `O=C(Cc1cccc2ccccc12)Nc1ccccc1`, `O=C(Nc1nc(COc2ccccc2)cs1)c1ccccc1F` is higher in “hERG current change (%, negative = inhibition) at 10uM” value: 11.8% for the first, 24.9% for the second.

First: COc1ccc2[nH]c(C)c(CCN3C(=O)C4CC=CCC4C3=O)c2c1 (centres unmarked)
Second: COc1ccc(C(=O)NC2CCN(S(=O)(=O)Cc3ccccc3)CC2)c(OC)c1
The “hERG current change (%, negative = inhibition) at 10uM” value of the first is lower: 3.08% for the first, 4.71% for the second.

Compared with `Nc1nc(SCc2ccc(Cl)cc2Cl)nc2nc3c(cc12)CCCC3`, `C=CCn1c2ccccc2c2nnc(SCCN3CCCCC3)nc21` is lower in “hERG current change (%, negative = inhibition) at 10uM” value: 4.21% for the first, -46.4% for the second.

Going from `COc1ccccc1C(=O)NCC(=O)NCC1(N2CCCCC2)CCCCC1` to `O=C(CN1CCC(N2CCCCC2)CC1)N1CCCc2ccccc21.O=C(O)C(=O)O`, the “hERG current change (%, negative = inhibition) at 10uM” value rises from 0.491% to 20.7%.

Going from `COc1nc(-c2ccccc2)c2cc(Br)ccc2n1` to `NNc1nc(-c2ccccc2)c2cc(Br)ccc2n1`, the “hERG current change (%, negative = inhibition) at 10uM” value rises from -0.224% to 0.341%.

Going from `COC(=O)c1ccc(/C=N/Nc2nc(C)c(C)s2)cc1` to `Cn1nccc1C(=O)Oc1ccc(/C=N/NC(=O)c2ccccc2O)cc1`, the “hERG current change (%, negative = inhibition) at 10uM” value rises from 3.14% to 15.5%.

Going from `COc1ccc(C(CNC(=O)C2CC(=O)N(Cc3ccccc3)C2)N2CCCC2)cc1` (centres unmarked) to `C[C@H](N)C(=O)N1CCC(C(=O)N[C@@H](Cc2ccccc2)C(=O)Nc2ccc(F)cc2)CC1`, the “hERG current change (%, negative = inhibition) at 10uM” value falls from 7.72% to -5.88%.

Going from `O=C(NCc1ccncc1)C(=O)Nc1nccs1` to `CC(=O)c1ccc(-c2cccs2)s1`, the “hERG current change (%, negative = inhibition) at 10uM” value rises from 9.87% to 17.7%.

First: CC(C)Cn1c(N)cc(=O)n(C)c1=O
Second: CCN1CCN(C(=O)C(NS(=O)(=O)c2ccc3nc(C)sc3c2)C(C)C)CC1 (centres unmarked)
The “hERG current change (%, negative = inhibition) at 10uM” value of the first is higher: 18.2% for the first, 0.194% for the second.

Going from `CCOC(=O)N1CCN(S(=O)(=O)c2ccc(C(=O)Nc3nnc(CSC)o3)cc2)CC1` to `CSCC(=O)NS(=O)(=O)c1ccc(C)cc1`, the “hERG current change (%, negative = inhibition) at 10uM” value rises from -12.7% to 8.24%.

Compared with `O=c1cc(C(F)(F)F)nc(-c2ccccc2OC(F)(F)F)[nH]1`, `Cc1cc(C)n(-c2nc3ccccc3[nH]c2=O)n1` is higher in “hERG current change (%, negative = inhibition) at 10uM” value: 4.02% for the first, 23% for the second.

Going from `COc1cc(S(=O)(=O)NCCN2CCOCC2)c(OC)cc1Cl` to `CCS(=O)(=O)N1CCC(C(=O)NCc2ccc(OC)cc2OC)CC1`, the “hERG current change (%, negative = inhibition) at 10uM” value rises from 6.08% to 20.4%.

First: CCOC(=O)C(Cc1ccccc1)NC(=O)CNC(C)=O (centres unmarked) (Ac-Gly-[ξF]-OEt)
Second: C/C(Cc1ccccc1)=N\NC(=O)CNC(=O)Cc1ccc(Cl)cc1
The “hERG current change (%, negative = inhibition) at 10uM” value of the first is lower: -27.8% for the first, -4.76% for the second.

First: Cn1cnnc1SCC(=O)Nc1ccccc1
Second: CC(C)CCNC(=O)NC(=O)CSc1nnc(-c2ccccc2Br)o1
The “hERG current change (%, negative = inhibition) at 10uM” value of the first is higher: 9.96% for the first, -5.73% for the second.

First: Cl.O=C(C(c1ccccc1)N1CCOCC1)N1CCOCC1 (centres unmarked)
Second: COc1ccccc1OCC(O)CN1CCN(C(=O)c2ccccc2)CC1.Cl (centres unmarked)
The “hERG current change (%, negative = inhibition) at 10uM” value of the first is lower: -4.56% for the first, 1.39% for the second.

First: Cc1nc(CCNC(=O)c2cc(COc3ccc(F)cc3Cl)on2)sc1C
Second: COc1ccc(CCn2c(SCC(=O)Nc3cc(C)on3)nc3ccsc3c2=O)cc1OC
The “hERG current change (%, negative = inhibition) at 10uM” value of the first is lower: -22.4% for the first, 1.5% for the second.

Going from `Cc1nn(C)c(Cl)c1CN1CCN(C2CCCCC2)C(CCO)C1` (centres unmarked) to `Cc1noc(C)c1CSCC(=O)Nc1cc(C(F)(F)F)ccc1N1CCCCC1`, the “hERG current change (%, negative = inhibition) at 10uM” value falls from 2.86% to -17%.

Going from `COc1ccc(-n2cc(-c3ccccc3)c3c(NCCCN4CCOCC4)ncnc32)cc1` to `O=C(COc1ccc2c(-c3ccccc3)cc(=O)oc2c1)NCC1CCC(C(=O)O)CC1` (centres unmarked), the “hERG current change (%, negative = inhibition) at 10uM” value rises from -65% to 12%.

First: C=C1[C@@H](OC(C)=O)CC[C@]2(C)[C@@H]1C[C@@H]1C[C@H](OC(C)=O)C(C)=C([C@@H](OC(C)=O)[C@@H]2OC(C)=O)C1(C)C
Second: CC(C)=C1C2C=CC1C(C(=O)Nc1cccc(C)c1)C2C(=O)O (centres unmarked)
The “hERG current change (%, negative = inhibition) at 10uM” value of the first is lower: -27.2% for the first, 7.56% for the second.

Compared with `COc1ccc(NC(=O)C(=O)NNC(=O)COc2ccc(Cl)cc2)c(OC)c1`, `COc1ccc(NC(=O)COC(=O)CCCOc2ccc(Cl)cc2Cl)cc1` is lower in “hERG current change (%, negative = inhibition) at 10uM” value: 10.5% for the first, 4.42% for the second.

Going from `COc1ccc(CNC(=O)c2cc(C(=O)C3CC3)c[nH]2)cc1` to `CSc1nc(C(=O)N2CCCC(C(=O)c3ccc(Cl)cc3)C2)cs1` (centres unmarked), the “hERG current change (%, negative = inhibition) at 10uM” value falls from 10.2% to -18.1%.

First: O=C(CN(Cc1ccco1)C(=O)Cn1nnc(-c2cccs2)n1)NCC1CCCO1 (centres unmarked)
Second: NC(=O)c1nsc(C(=O)N(c2ccc(F)cc2)C(C(=O)NCC2CCCO2)c2ccc3ncccc3c2)c1N (centres unmarked)
The “hERG current change (%, negative = inhibition) at 10uM” value of the first is higher: 6.63% for the first, -22.4% for the second.

First: c1ccc(C2=Nn3c(nnc3-c3ccco3)SC2)cc1
Second: Cc1cc(-c2ccco2)n(CC(=O)NCCCc2ccccc2)n1
The “hERG current change (%, negative = inhibition) at 10uM” value of the first is lower: -25.9% for the first, 4.73% for the second.

Going from `O=C(N/N=C/c1cccc(OC(=O)c2ccc([N+](=O)[O-])cc2)c1)c1cccnc1` to `CCc1ccc(C(=O)/C=C/NCc2ccc(F)cc2)cc1`, the “hERG current change (%, negative = inhibition) at 10uM” value falls from 1.99% to -4.74%.

First: Cc1cc(C)c(NC(=O)CS(=O)CC(=O)Nc2ccc(F)cc2F)c(C)c1 (centres unmarked)
Second: Cc1cc(/C=N/NC(=O)C(=O)N2CCCC2)c(C)n1-c1cccc(Br)c1
The “hERG current change (%, negative = inhibition) at 10uM” value of the first is higher: 12.1% for the first, -6.65% for the second.

First: NS(=O)(=O)c1ccc(CCNC(=O)CCCn2c(=O)[nH]c3ccc(Br)cc3c2=O)cc1
Second: CCNC(=S)NNC(=O)Cn1c(=O)c2c(ncn2CCOC)n(Cc2ccccc2)c1=O
The “hERG current change (%, negative = inhibition) at 10uM” value of the first is lower: 15.2% for the first, 15.3% for the second.

Compared with `O=C(NCCO)c1nc(NCCO)c2ccccc2n1`, `CCCCNC(=O)Nc1nc2ccc(CC)cc2s1` is higher in “hERG current change (%, negative = inhibition) at 10uM” value: 10.3% for the first, 21.2% for the second.

Going from `Cc1ccc(N(C(=O)CCC(=O)Nc2cc(C)on2)C(C(=O)NC2CCCC2)c2ccccc2)cc1` (centres unmarked) to `CCOC(=O)C1CCCN(C(=S)Nc2ccc(Nc3ccccc3)cc2)C1` (centres unmarked), the “hERG current change (%, negative = inhibition) at 10uM” value falls from 10.1% to -8.62%.

First: C/C(Cn1cnc([N+](=O)[O-])n1)=N\NC(=O)c1ccccc1O
Second: CCCCCC(=O)NN=C1CCN(Cc2ccccc2)CC1
The “hERG current change (%, negative = inhibition) at 10uM” value of the first is higher: 8.06% for the first, -17.2% for the second.

First: O=C(O)/C=C/C(=O)Nc1ccc2c(c1)C(=O)c1ccccc1C2=O
Second: O=C(Nc1ccc2c(c1)OCCO2)c1ccccc1F
The “hERG current change (%, negative = inhibition) at 10uM” value of the first is lower: -1.32% for the first, 1.64% for the second.

First: CCC1C2Cn3c(nc4ccccc43)C1N(C)O2 (centres unmarked)
Second: O=C(NCCCn1ccnc1)C1CC(c2ccccc2Cl)=NO1 (centres unmarked)
The “hERG current change (%, negative = inhibition) at 10uM” value of the first is higher: 3.25% for the first, -5.15% for the second.

First: COc1cc2c(cc1OC)C(c1cccc([N+](=O)[O-])c1)NC(=O)C2 (centres unmarked)
Second: COc1ccc(/C=C2\SC(=S)N(CC(=O)NC3C=CS(=O)(=O)C3)C2=O)cc1 (centres unmarked)
The “hERG current change (%, negative = inhibition) at 10uM” value of the first is lower: 3.25% for the first, 15.1% for the second.

Going from `Clc1cccc(CSc2nnc(-c3cccnc3)n2Cc2ccco2)c1` to `Cc1ccccc1N1C(=O)C2ON(c3ccccc3)C(c3ccncc3)C2C1=O` (centres unmarked), the “hERG current change (%, negative = inhibition) at 10uM” value rises from -74.3% to -2.7%.

Going from `CN(C(=O)COc1cccc(C#N)c1)C1CCS(=O)(=O)C1` (centres unmarked) to `CCCc1nnc(NC(=O)C2CCN(C(=O)C3CC(=O)N(c4ccc(C)cc4)C3)CC2)s1` (centres unmarked), the “hERG current change (%, negative = inhibition) at 10uM” value falls from 4.86% to -5.5%.

`O=C1CCCC(=O)N1c1ccc(F)cc1` was tested, and the “hERG current change (%, negative = inhibition) at 10uM” value was 10.2%.
